# Measured values: PubChem BioAssay AID1458 (National Center for Advancing Translational Sciences (NCATS), 2008)
# The campaign covered roughly 210,000 compounds. About 5,900 (2.8%) were called active. Inconclusive results, whose numbers are uncertain, are shown with a selection of clear calls. Calls follow the shape of the dose curve; as a rule, active = well fitted activation curve with a large enough effect; inconclusive = small, poorly fitted or top-dose-only effect; inactive = no such curve, though single readings can be large or run the other way. Where the call is inconclusive, the potency comes from a doubtful curve fit.
# Assay: qHTS Assay for Enhancers of SMN2 Splice Variant Expression; also: nearly all actives have a fitted effect of over 55% in size; as to activity change, positive = activation: % of control where 0% means no effect
# Conditions: HEK293 SMN2-luciferase splicing reporter, luminescence, 30-36 h; activity change, positive = activation: at 46.1 µM (top of the series)
# Outline: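 HEK293 cells carry an SMN2 […]–luciferase reporter in which exon 7 inclusion puts luciferase in frame. Cells were plated 10-12 h before compound addition, then incubated 30-36 h at 37C. ONE-Glo luminescence was read; sodium butyrate at 4.5 mM final served as control.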
# Potency is read from the fitted curve at half-maximal effect; tags tell the direction and shape of the fitted curve.
Compound,Potency,"activity change, positive = activation"
Cc1cc2sc(C(=O)O)c(C)c2s1,inactive,–
COc1ccc(Br)cc1C(=O)Nc1ccc(O)cc1,active: 28.2 µM,–
O=C(CN1CCCC1)Nc1c2c(nc3ccccc13)N(Cc1ccccc1)CC2,"inconclusive: 0.004 µM [activator, full curve, poor fit]",–
CCOc1ccc(-n2c(SCc3nc(-c4cccs4)no3)nnc2-c2ccncc2)cc1,"inconclusive: 0.708 µM [activator, full curve]",–
COc1cccc(-n2cnc3c(sc4nc(N5CCOCC5)c5c(c43)CCCC5)c2=O)c1,inactive,–
O=C(NNC(=O)c1ccccc1Br)c1ccccc1Cl,inactive,–
Cc1ccc(NC(=O)/C=C/c2ccc3c(c2)OCO3)cc1S(=O)(=O)N1CCOCC1,inactive,–
COC(=O)c1c(C)[nH]c(O)c1C=Nc1ccc(C#N)cc1,"inconclusive: 35.5 µM [activator, single point]",–
CCOC(=O)C1CCCN(C(=O)c2cc(-c3ccc(C)cc3)on2)C1 (centres undefined),"inconclusive: 2.82 µM [activator, partial curve]",–
COc1ccccc1NC(=O)c1sc2cccc(Cl)c2c1Cl,inactive,–
COc1ccc(CN2CCN(C(=O)c3ccco3)CC2)cc1,inactive,–
CCCN1C2CCCC1CC(NC(=O)Nc1cccc(C(C)=O)c1)C2 (centres undefined),"inconclusive: 0.282 µM [activator, full curve]",–
O=C(c1ccco1)N1CCN(c2ncnc3c(-c4ccccc4)nsc23)CC1,inactive,–
CCOc1ccccc1NC(=O)c1nn(-c2ccc(OC)cc2)c(=O)c2c1c1ccccc1n2C,"inconclusive: 5.01 µM [activator, single point]",–
COCCNC(=O)CSc1nccn1Cc1ccc2c(c1)OCO2,"inconclusive: 4.47 µM [activator, single point]",–
Cc1ccc(NC(=O)c2ccnc(C(C)(C)C)c2)cc1,"inconclusive: 35.5 µM [activator, single point]",–
Clc1ccc(N2CCN(c3cnc4ccccc4n3)CC2)cc1,inactive,–
CC(=O)N1N=C(c2cccc(Cl)c2)OC1c1cccc([N+](=O)[O-])c1 (centres undefined),–,inactive: 1.52% [at 1.84 µM]
CCCCOc1ccc(/C=N/NC(=S)Nc2cccc(C)c2C)cc1,"inconclusive: 3.16 µM [activator, single point]",–
CC(=O)Nc1ccc(N/C=C/C(=O)C(C)(C)C)cc1,"inconclusive: 3.55 µM [activator, full curve, poor fit]",–
CCOc1ncccc1C(=O)Nc1nc(SC)ns1,"inconclusive: 22.4 µM [activator, partial curve, poor fit]",–
O=S(=O)(NC1CCCC1)c1ccc(S(=O)(=O)NC2CCCC2)cc1,"inconclusive: 3.16 µM [activator, single point]",–
COc1cc(/C=C(\C#N)C(=O)c2ccc(O)c(O)c2)cc(I)c1O,"inconclusive: 14.1 µM [activator, single point]",–
CNC(=O)c1ccc(-c2ccc(F)cc2)s1,–,inconclusive: 30.3% [activator]
CN1CCc2cc(NC(=O)Nc3cccnc3)ccc21,"inconclusive: 35.5 µM [activator, single point]",–

Compound,Potency,"activity change, positive = activation"
CC1CC(C)CN(C(=O)c2cn(C)c3ccc(S(=O)(=O)N(C)C)cc3c2=O)C1 (centres undefined),inactive,–
CCOc1cc(/C=C2\SC(=O)N=C2N)ccc1O,"inconclusive: 6.31 µM [activator, partial curve, poor fit]",–
O=C(N/N=C/c1cn(-c2cccs2)nc1-c1ccccc1)c1ccccc1Cl,active: 20 µM,–
CCCC(=O)Nc1cccc(-c2nc3cc(C)c(C)cc3o2)c1C,"inconclusive: 1.78 µM [activator, partial curve]",–
Cc1[nH]c2ccccc2c1/C=N/NC(=O)c1cccs1,"inconclusive: 7.94 µM [activator, partial curve]",–
Cc1cc(NC(=O)CSCCc2ccncc2)no1,inactive,–
COc1ccccc1NC(=O)Nc1ccc2c(c1)nnn2C,"inconclusive: 15.8 µM [activator, single point]",–
CCOc1ccc(Cl)cc1S(=O)(=O)n1cnc2ccccc21,"inconclusive: 2.51 µM [activator, full curve]",–
CC(=O)c1ccc(NC(=S)N2CCCC(C(F)(F)F)C2)cc1 (centres undefined),"inconclusive: 35.5 µM [activator, single point]",–
O=c1oc2ccccc2c(O)c1/C=N/c1nc(-c2ccc(O)c(O)c2)cs1,–,inactive: -3.66% [at 9.22 µM]
Cc1cc(C)nc(NC(=NCCc2c[nH]c3ccccc23)NC(=O)Nc2ccccc2)n1,"inconclusive: 1.26 µM [activator, single point]",–
Nc1nc(C2C(=O)CCCC2=O)cs1,"inconclusive: 2.51 µM [activator, full curve, poor fit]",–
CC1=NN(c2ccccc2)C(=O)/C1=C/c1cc2cc(C)ccc2nc1N1CCCCC1,"inconclusive: 17.8 µM [activator, partial curve, poor fit]",–
Cc1ccc(N2CC(C(=O)N3CCc4ccccc4C3)CC2=O)cc1 (centres undefined),"inconclusive: 5.62 µM [activator, partial curve]",–
CC(=O)c1cc2c(cc1NS(=O)(=O)c1ccccc1)OCO2,inactive,–
CCc1ccc(N(C(=O)c2csnn2)C(C(=O)NC(C)(C)CC)c2cccnc2)cc1 (centres undefined),"inconclusive: 0.398 µM [activator, single point]",–
COc1ccc(-c2nc(C#N)c(NCCCn3ccnc3)o2)cc1OC,active: 6.31 µM,–
N/C(Cn1cncn1)=N\NC(=O)C(=O)Nc1ccccc1,"inconclusive: 17.8 µM [activator, partial curve]",–
C=C[C@](C)(O)CCC1C(=C)CC(OC(C)=O)C2C(C)(C)CCCC12C (some centres undefined),inactive,–
Cc1cccc(OCC(=O)N(Cc2cccc(Cl)c2)Cc2ccco2)c1C,inactive,–
COc1ccc(OC)c(C2C(C(N)=O)=C(C)Nc3nc(-c4cccc(Cl)c4)nn32)c1 (centres undefined),"inconclusive: 0.141 µM [activator, full curve, poor fit]",–
COc1cc2c(C(=O)N3CCCc4ccccc43)cn(C)c(=O)c2cc1OC,"inconclusive: 31.6 µM [activator, single point]",–
COc1ccc(N=Cc2ccc[nH]2)cc1,inactive,–
Cc1ccc(CSc2nc3c(c(N(C)C)n2)CCCC3)cc1,inactive,–
CCCCOC(=O)Nc1nnc(C(C)C)s1,"inconclusive: 35.5 µM [activator, single point]",–

Compound,Potency,"activity change, positive = activation"
Cc1ccc(/C(N)=N/OC(=O)c2ccco2)cc1,active: 11.2 µM,–
Cc1nc(CNS(=O)(=O)c2cc(F)ccc2F)cs1,"inconclusive: 11.2 µM [activator, partial curve]",–
Fc1ccc(C2=NC(c3cccc(C(F)(F)F)c3)=Nc3ccccc3N2)cc1,inactive,–
CC1CCC(NC(=O)Cn2ncc3ccccc32)CC1 (centres undefined),"inconclusive: 11.2 µM [activator, partial curve, poor fit]",–
C[C@@H](CNC1CCCCC1)OC(=O)c1ccccc1,inactive,–
Fc1cccc(CN2CCN(c3ncccn3)CC2)c1,inactive,–
C/C(=N\NC(=O)c1cccc(N/N=C(\C)c2ccncc2)c1)c1ccncc1,inactive,–
Cc1ccc(NC(=O)C2C3CC4OC(=O)C2C4C3)cc1Cl (centres undefined),"inconclusive: 0.0282 µM [activator, full curve]",–
COCc1cc(=O)n2c(-c3ccc(C)cc3)n[nH]c2n1,"inconclusive: 35.5 µM [activator, single point]",–
COc1cccc(NC(=O)CSc2ccccn2)c1,"inconclusive: 8.91 µM [activator, partial curve, poor fit]",–
Cc1ccc(NC(=S)NC2CCCC2)cc1,"inconclusive: 22.4 µM [activator, single point]",–
COc1cc2nc(SCc3ccc(F)cc3)n3nc(CCn4c(C)nc5ccccc54)nc3c2cc1OC,"inconclusive: 0.282 µM [activator, full curve, poor fit]",–
NNc1nc2c(-c3ccc(F)cc3)nnn2c2ccccc12,active: 5.01 µM,–
CCN1C(=O)CC(c2ccco2)Sc2ccccc21 (centres undefined),"inconclusive: 12.6 µM [activator, single point]",–
Clc1ccc(-c2ccc(/C=N/Nc3cc(N4CCOCC4)nc(N4CCOCC4)n3)o2)cc1,inactive,–
Cc1ccc(CN2CCC(CNC(=O)Nc3c(C)cccc3C)C2)cc1 (centres undefined),inactive,–
CCC(=O)Nc1nc2c(OC)ccc(C)c2s1,"inconclusive: 2.82 µM [activator, partial curve, poor fit]",–
Cc1ccc(C2=NN(C(=O)COc3ncnc4ccccc34)C(c3ccco3)C2)cc1 (centres undefined),"inconclusive: 35.5 µM [activator, single point]",–
N#C/C(=C\c1ccc[nH]1)C(=O)NC1CC1,"inconclusive: 5.62 µM [activator, single point]",–
COc1cccc2cc(C(=O)NC(C)C3CCCO3)c(=O)oc12 (centres undefined),"inconclusive: 35.5 µM [activator, single point]",–
COc1ccccc1OCC(=O)Nc1cc(-c2ccc(C)cc2)no1,"inconclusive: 15.8 µM [activator, single point]",–
Cc1cc(S(=O)(=O)NCc2ccccc2)ccc1OCC(=O)Nc1cccc([N+](=O)[O-])c1,"inconclusive: 0.794 µM [activator, full curve, poor fit]",–
CCn1cc(C(=O)O)c(=O)c2cc(F)c(N3CCN(S(=O)(=O)c4ccc(NC(=O)OC)cc4)CC3)cc21,inactive,–
Cc1cccc2cc(CN(CCN3CCOCC3)C(=O)Nc3ccccc3F)c(=O)[nH]c12,inactive,–
